In all, about 110,000 compounds went through this assay and about 40 (0.04%) were called active. This list was built around the results that the source calls inconclusive (neither active nor inactive); the mix of calls is not that of the screen. Calls come from the whole dose curve; as a rule, active = well fitted curve in the direction sought with a large enough effect in the signal ratio (not every such curve was filed as active); inconclusive = small, poorly fitted or top-dose-only effect, or a change in a side signal; inactive = flat fitted curve, though single readings scatter; the % refers to the signal ratio. Potencies of inconclusive entries are doubtful fits and often do not repeat.
test: IkB Signaling; conditions: ABC-DLBCL IkBa-CBG/CBR dual luciferase ratio (green luciferase fused to IkBa over red control in OCI-Ly3 lymphoma cells), 4 h; IkBa stabilization activation: at 57.1 µM (top of the series), scaled: untreated 0%, proteasome inhibitor 100% unless noted;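 for IkBa stabilization activation: 0% = basal untreated cells and 100% = reference inhibitor full response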
In short: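 In this assay, an IκBα–CBG68 fusion accumulates when IKK-driven degradation is blocked; native CBR normalizes for cell number. OCI-Ly3 cells were treated 4 h with compound and doxycycline, then green and red light read after Chroma-Glo addition.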
Potency is the fitted concentration of half-maximal effect.

Structure (SMILES)	IkBa stabilization activation	Potency
COCCNC(=O)CSc1nc(-c2ccc(C)cc2)[nH]c1-c1ccc(OC)cc1	inconclusive: 12% [signal inhibitor]	
CCCc1nn2c(=O)cc(COC(=O)c3ccccc3NC(=O)c3ccc(OCC)cc3)nc2s1	inactive: -1.46%	
O=C(Nc1ccc(Cl)cc1F)c1cc(S(=O)(=O)NC2CCCCCC2)ccc1F	inconclusive: -0.734% [signal inhibitor]	
Cc1cccn2c(=O)c3cc(C(=O)NCC4CCCO4)n(C)c3nc12 (stereo unspecified)	inactive: -1.58%	
Cc1cccc(NC(=O)c2oc3ccccc3c2NC(=O)Cc2coc3cc(C)cc(C)c23)c1	inconclusive: 3.01% [signal inhibitor]	
Cc1ccccc1OCC(=O)Nc1ccccc1C(=O)OCc1cc(=O)n2nc(C3CC3)sc2n1	inconclusive: 6.29% [signal inhibitor]	
COc1ccc(NC(=O)Cn2ccn(-c3ccc(C)c(C)c3)c(=O)c2=O)cc1Cl	inactive: -2.03%	
Cc1nc2ncnn2c(C)c1CCC(=O)NC(C)c1ccc2c(c1)OCCO2 (stereo unspecified)		inconclusive: 5.01 µM [signal inhibitor, full curve]
COc1ccc(Cl)cc1NC(=O)CSc1nc(=O)[nH]c2c1CCC2	inconclusive: 12.5% [signal inhibitor]	
COc1cccc(NC(=O)CSc2nnc(-c3cc(-c4ccccn4)nc4ccccc34)o2)c1	inconclusive: 7.64% [signal inhibitor]	
Cc1cc(NC(=O)c2cc(-c3ccc(F)cc3)on2)nn1Cc1ccc(Cl)cc1		inconclusive: 12.6 µM [signal inhibitor, partial curve]
Cc1ccc2c(CC(=O)Nc3ccc(S(=O)(=O)N4CCCC(C)C4)cc3)coc2c1 (stereo unspecified)	inconclusive: 1.5% [signal inhibitor]	
O=c1cc(-c2ccc(Cl)cc2)[nH][nH]1	inconclusive: 9.05% [signal inhibitor]	
OC(c1ccccc1)c1nc2ccccc2n1Cc1c(F)cccc1Cl (stereo unspecified)	inconclusive: 4.36% [signal inhibitor]	
Fc1ccc(-n2nc(-c3ccccc3)c3cnc4ccccc4c32)cc1Cl	inactive: 0.341%	
COc1ccccc1C1C(C(=O)Nc2ccccc2)=C(C)Nc2nc(-c3ccccc3)nn21 (stereo unspecified)	inconclusive: 14.6% [signal inhibitor]	
CC(=O)N1CCc2cc(S(=O)(=O)NC(Cc3ccccc3)C(=O)Nc3cc(C)cc(C)c3)ccc21 (stereo unspecified)	inconclusive: 3.91% [signal inhibitor]	
CC1CCCCN1CCCNC(=O)Cn1ncc2c3ccccc3n(Cc3ccccc3)c2c1=O (stereo unspecified)	inconclusive: 1.2% [signal inhibitor]	
COc1ccccc1N1CCN(Cc2nc(-c3cc(OC)c(OC)c(OC)c3)no2)CC1	inconclusive: 1.61% [signal inhibitor]	
Cc1ccc(Cl)cc1N1CCN(C(=O)CCc2nnc3n(C)c(=O)c4ccccc4n23)CC1	inconclusive: 9.39% [signal inhibitor]	
COc1ccc(CCN2C(=O)CN(C3CCCCCC3)C(=O)C2c2ccc(Cl)cc2)cc1OC (stereo unspecified)	inconclusive: -0.882% [signal inhibitor]	
COc1ccccc1NC(=O)CSc1nnc(Cc2cccn2C)n1-c1ccc(F)cc1	inconclusive: 12.1% [signal inhibitor]	
O=C(Cn1ncc2c3ccccc3n(Cc3ccccc3)c2c1=O)NCCCN1CCCCC1	inconclusive: 1.16% [signal inhibitor]	
CC1CN(C(=O)N2CCC(C(=O)NCc3ccco3)CC2)c2ccccc2O1 (stereo unspecified)	inconclusive: -1.38% [signal inhibitor]	

Structure (SMILES)	IkBa stabilization activation	Potency
Cc1sc2ncnc(SCC(=O)NC(=O)NCc3ccco3)c2c1C	inactive: -0.474%	
Cc1ccc2ncc(C(=O)c3ccc(C)c(C)c3)c(S(=O)(=O)c3ccccc3)c2c1		inconclusive: 5.01 µM [signal inhibitor, single point]
COc1ccc(Cl)cc1C(=O)CSc1nc(N)cc(N)n1	inconclusive: 2.97% [signal inhibitor]	
Cc1cccc(CN2C(=O)c3ccccc3Sc3ccc(C(=O)NCCCN4CCOCC4)cc32)c1	inconclusive: 0.348% [signal inhibitor]	
O=C(Nc1nc2ccccc2n1CCOc1ccccc1Cl)c1ccccc1	inactive: -0.98%	
Cc1[nH]c2ccccc2c1Cc1nnc(SCC(=O)NCc2ccco2)o1		inconclusive: 20 µM [rising, partial curve]
O=C(OCC1CO1)C1CCCCC1C(=O)OCC1CO1 (stereo unspecified)	inactive: 3.44%	
Cc1ccc(-c2nc(CS(=O)(=O)CC(=O)N3CCN(c4ccccc4)CC3)c(C)o2)cc1	inconclusive: 5.26% [signal inhibitor]	
COc1cc(Br)cc2cc(S(=O)(=O)c3ccccc3)c(=O)oc12	inconclusive: 11.5% [signal inhibitor]	
CCc1cccc(C)c1Nc1c(-c2ccc(N(C)C)cc2)nc2cnccn12		inconclusive: 39.8 µM [signal inhibitor]
Cc1ccc(-n2nc(C)c3c(C)c(CCC(=O)NCc4ccc(Cl)cc4)c(C)nc32)cc1	inconclusive: 2.08% [signal inhibitor]	
CCCOc1ccc(CN2C(=O)C(=O)c3cccc(C)c32)cc1	inactive: 0.493%	
Cc1cc(NC(=O)c2cc(-c3ccccc3)on2)n(-c2ccccc2)n1		inconclusive: 15.8 µM [signal inhibitor, partial curve]
CCc1ccc(C(=O)c2cn(CC(=O)Nc3cc(OC)cc(OC)c3)c3ccc(CC)cc3c2=O)cc1	inconclusive: 0.222% [signal inhibitor]	
CN(C)C=NC(=O)/C(C#N)=C1\CCc2ccccc2N1	inactive: -1.93%	
Cc1ccsc1-c1nc(CSCC(=O)NCc2ccc3c(c2)OCO3)c(C)o1	inconclusive: 6.53% [signal inhibitor]	
O=S1(=O)c2ccccc2N(Cc2ccc(F)cc2)c2ccccc21	inconclusive: 3.3% [signal inhibitor]	
CCn1cnc2scc(-c3ccccc3)c2c1=O	inactive: 1.9%	
O=C(Nc1ccc(CN2CCCCC2)cc1)c1ccc2c(c1)OCO2	inactive: 2.49%	
O=C(Nc1cc(Cl)cc(Cl)c1)c1cc(S(=O)(=O)N2CCc3ccccc3C2)ccc1F	inconclusive: 1.13% [signal inhibitor]	
Cn1cccc1-c1nc2ccc(NC(=O)c3ccco3)cc2[nH]1	inconclusive: 7.95% [signal inhibitor]	
CCOC(=O)c1cccc(NC(=O)C2CCCN(c3nnc(C)c4c(C)n(-c5ccccc5)nc34)C2)c1 (stereo unspecified)	inconclusive: -2.17% [signal inhibitor]	
COc1ccc(OC)c(C2C(C(=O)Nc3ccccc3OC)=C(C)Nc3c(C(=O)Nc4ccc(F)cc4)cnn32)c1 (stereo unspecified)	inconclusive: 1.44% [signal inhibitor]	
CC(Nc1ccc(Br)cn1)c1cc(Cl)ccc1O (stereo unspecified)	inconclusive: -3.34% [signal inhibitor]	

Structure (SMILES)	IkBa stabilization activation	Potency
O=C(CSc1nnc(-c2cnccn2)n1Cc1ccco1)c1ccc2ccccc2c1	inconclusive: 10% [signal inhibitor]	
COc1ccc(NS(=O)(=O)c2ccc3oc(Nc4ccc5c(c4)OCCO5)nc3c2)cc1	inconclusive: -1.16% [signal inhibitor]	
Cc1cccc(-n2ccnc2SCC(=O)Nc2nc3ccccc3s2)c1	inactive: 0.0825%	
O=C(CSC1=NCCN1)NC12CC3CC(CC(C3)C1)C2	inconclusive: 9.82% [signal activator]	
CCOC(=O)c1ccc(NS(=O)(=O)c2cc(Br)cc3c2N(C(C)=O)C(C)C3)cc1 (stereo unspecified)	inconclusive: 0.313% [signal inhibitor]	
Nc1ccc2oc(=O)c3ccccc3c2c1	inactive: -2.53%	
CCc1nnc(NC(=O)C2Cc3ccccc3CN2S(=O)(=O)c2cccs2)s1 (stereo unspecified)	inconclusive: 0.727% [signal inhibitor]	
COc1ccc(CNC(=O)c2cc(-c3ccc(C)c(C)c3)n[nH]2)cc1	inconclusive: 6.59% [signal inhibitor]	
Cc1cc2ccccc2n1CCNC(=O)C(C)C	inactive: 4.56%	
CCN(C(=O)c1cc(S(=O)(=O)N2CCc3ccccc32)cn1C)c1cccc(C)c1	inconclusive: -4.39% [signal inhibitor]	
COc1ccc(-c2nc(C#N)c(NCc3ccc(C)cc3)o2)cc1OC	inactive: -1.18%	
O=C(Nc1ccc(-c2nc3cccnc3s2)cc1)c1ccco1		inconclusive: 31.6 µM [rising, partial curve]
CNS(=O)(=O)c1cn(CC(=O)Nc2ccc(C)c(N(C)C)c2)cc1S(=O)(=O)NC	inactive: 0.422%	
Cc1ccc2c(=O)c(C(=O)c3ccc(F)cc3)cn(CC(=O)NCc3ccccc3Cl)c2n1	inconclusive: 0.558% [signal inhibitor]	
Cc1ccc(Cl)cc1N1CCN(C(=O)c2cccn2-c2nnc(N3CCCC3)s2)CC1	inconclusive: 2.6% [signal inhibitor]	
CC(C)(C)OC(=O)N1CCC(c2c(C(=O)NCc3ccc4c(c3)OCO4)cnn2-c2ccccc2Cl)CC1	inconclusive: -1.84% [signal inhibitor]	
O=C(Nc1ccc(OC(=O)c2cccs2)cc1)c1ccco1	inactive: -1.89%	
CCc1ccc2oc(-c3cc(N)cc(C)c3O)nc2c1		inconclusive: 15.8 µM [signal inhibitor, partial curve]
CCOC(=O)Cn1c(C)nc2ccccc21	inactive: -1.86%	
COc1ccc(NC(=O)c2ccc3c(c2)nnn3C2CCCC2)cc1Cl	inactive: -0.769%	
Cc1ccc(Cn2c(C(=O)O)c(CNCc3cccs3)c3ccc(C)cc32)cc1	inconclusive: -0.835% [signal inhibitor]	
Cc1nc2nc(-c3ccccc3)cn2nc1C	inactive: 5.87%	
COc1cc(-c2nnn(CC(=O)NC3CCS(=O)(=O)C3)n2)ccc1OCc1ccccc1 (stereo unspecified)	inconclusive: 10.3% [signal inhibitor]	

Source: PubChem BioAssay AID445 (National Center for Advancing Translational Sciences (NCATS), 2006)
